Measured values reported in PubChem BioAssay AID1159583 (ICCB-Longwood Screening Facility, Harvard Medical School, 2016).
This is one part of the list. The main result of the screen is listed elsewhere. These columns were measured beside it and carry no call. The list favours compounds with an active or inconclusive main result.

assay: hypoxia reporter signal reduction in M. tuberculosis – fluorescence, absorbance growth readout, primary screen (AID 1159583); conditions: M. tuberculosis hypoxia-regulated fluorescent reporter, measured here: M. tuberculosis growth (absorbance), stronger effect = higher value, concentration not given here

SMILES	growth inhibition
O=C(/C=C(\c1ccc(Cl)cc1)n1cncn1)c1ccc(Cl)cc1	13.1%
O=C1CCCN1CCCN=c1c([N+](=O)[O-])nn(-c2ccc(Cl)cc2)n1O	20.8%
O=C(NCc1ccncc1)c1cccc(S(=O)(=O)N2CCc3ccccc32)c1	56%
O=C(CSc1nnc(-c2ccc(F)cc2)o1)N1CCCCC1	30.1%
Oc1ccccc1N=Cc1sc2ccccc2c1Cl	24.3%
CN(C)c1ccc2nc3ccc(=[N+](C)C)cc-3sc2c1	2.3%
Fc1ccc(CSc2nnc(-c3ccccn3)o2)cc1	21.9%
CCOC(=O)C1=C(COC(=O)c2ccc(OC)c(S(=O)(=O)N3CCOCC3)c2)NC(=O)NC1C (centres undefined)	53.2%
Cc1ccc(NC(=O)Nc2ccno2)cc1	6.39%
COc1ccc(NC(=O)C(C)N=C2NS(=O)(=O)c3ccccc32)cc1S(N)(=O)=O (centres undefined)	67.3%
CCOc1cc(C=NNc2cc(C)nc(-n3nc(C)cc3C)n2)ccc1O	16.8%
CSc1nc(-c2ccc(C)cc2)nc(C(Cl)Cl)n1	41.5%
CCCCN(C(=O)c1ccco1)c1c(N)n(CCC)c(=O)[nH]c1=O	72%
CCOc1ccc2oc(C(=O)OCC(=O)NCc3ccc(OC)cc3)c(C)c2c1	68.7%
CC=CC=CC(=O)Nc1cccc(C2=NOC3(C2)CC(C(N)=O)N(C(=O)c2cc([N+](=O)[O-])cc([N+](=O)[O-])c2)C3)c1 (centres undefined)	29%
CCOc1ncccc1C(=O)Nc1cc2c(cc1Br)OCCO2	63.1%
CCCCn1c(N)c(N(CCOC)C(=O)c2oc3ccc(Br)cc3c2C)c(=O)[nH]c1=O	51.1%
CCOc1ccccc1OCCCC(=O)Nc1cccc(S(=O)(=O)N2CCOCC2)c1	56%
CCN(CC)c1ccc(C(=C2C=CC(=[N+](CC)CC)C=C2)c2ccc(N(CC)CC)cc2)cc1	-31.9%
COc1ccc(-n2nc(C(=O)NCC(=O)NC3CCCC(C)C3C)c3ccccc3c2=O)c(OC)c1 (centres undefined)	-16.5%
O=C(Nc1ccno1)Nc1ccc(Cl)cc1Cl	10.7%
COc1cc2ccccc2cc1C(=O)NN=Cc1cccnc1	31.2%
O=C(Oc1ccc(OC(=O)c2ccncc2)cc1)c1ccncc1	-13.7%
Clc1cccc(Cl)c1Cn1nnc(N2CCCC2)n1	21.4%
O=C1NC(=O)N(c2ccc3c(c2)OCO3)C(=O)C1=Cc1ccc(N2CCCC2)o1	4.72%

SMILES	growth inhibition
O=C(CCl)N(c1ccc(Cl)cc1)c1c[nH]c2ccccc12	23.6%
O=C(CSc1nc2ccccc2nc1N1CCOCC1)N1CCN(c2ccccc2)CC1	51.6%
O=[N+]([O-])c1cc(-c2ccc(C=Nn3cnnc3)o2)cc([N+](=O)[O-])c1	28.1%
CC(C)CCOC(=O)C[N+](C)(C)CCOC1CC2CCC1(C)C2(C)C (centres undefined)	24.1%
O=C(Nc1ccc(S(=O)(=O)NC2=NCCCCC2)cc1)c1cccs1	54.1%
Cc1ccc(NC(=O)c2ccc(Nc3c([N+](=O)[O-])cc([N+](=O)[O-])cc3[N+](=O)[O-])cc2)cc1	18.3%
CCSc1nnc(NC(=O)[C@H](C)N2C(=O)C3CC=CCC3C2=O)s1 (some centres undefined)	50.1%
Cn1c(-c2ccccc2)cc2c3no[n+]([O-])c3ccc21	26.3%
COc1ccc(CCNC(=O)c2cc(-c3ccccn3)nc3ccccc23)cc1	55.1%
CN1CCS/C1=C/C=C1\SC(=S)N(CC(=O)O)C1=O	4.61%
COc1ccc(OCC(=O)NC(=S)Nc2ccc(N3CCOCC3)c(Cl)c2)cc1	63.9%
COc1cc(N=Nc2ccccc2C(=O)O)ccc1O	14.1%
O=C(NCC1CCCO1)c1sc(=S)n2c1[nH]c(=O)c1ccc(C(=O)N3CCCCC3)cc12 (centres undefined)	20%
CC(NC(=O)COC(=O)c1ccc(N2CCCC2=O)cc1)c1ccc(F)cc1 (centres undefined)	76.2%
CNC(=S)Nc1ccc(-c2nc3ccc(C)cc3s2)cc1	60.4%
COCCNS(=O)(=O)c1ccc(-c2ccc(C)cc2)cc1	49.4%
O=[N+]([O-])c1ccccc1S(=O)(=O)Nc1ccc(S(=O)(=O)Nc2nccs2)cc1	41.1%
CCC(C)N=Cc1c(Nc2ccccc2)nc2c(C)cccn2c1=O (centres undefined)	24.4%
CC1CCN(c2nc3ccccn3c(=O)c2C=O)CC1	21.7%
O=[N+]([O-])c1ccc(NN=Cc2cc(Br)ccc2O)nc1	5.66%
CSc1ncccc1C(=O)OCC(=O)c1ccc[nH]1	54.1%
CC(C)Cn1c(=O)c(C(=O)Nc2ccncc2)c(O)c2ccccc21	-2.62%
CCOc1ccc2oc(C(=O)OCC(=O)NC3CCCCC3)c(C)c2c1	72%
NS(=O)(=O)c1ccc(NC(=O)c2ccc(Cl)c(S(=O)(=O)NCc3ccco3)c2)cc1	61.6%
N#Cc1ccc(/C=C/C(=O)c2ccccc2)cc1	21.6%

SMILES	growth inhibition
CCCCCCc1nnc(NC(=O)OCC)s1	19.8%
O=C(OCC(=O)c1ccc(Cl)cc1Cl)c1ccccn1	63.1%
C/C(=C1/SC(N2CCCC2)=NC1=O)c1ccc(Br)cc1	47.9%
CCCc1nnc(NC(=O)c2c(O)c3cccc4c3n(c2=O)CC4)s1	30.4%
Cc1cccc(N(Cc2ccccc2)C(=O)CCl)c1	23%
CC1CCCN(C(=O)CSc2nnc(-c3cccs3)o2)C1 (centres undefined)	25.1%
CCCS(=O)(=O)N1CCN(Cc2ccc3c(c2)c2ccccc2n3CC)CC1	-2.89%
CCC(/C=C1\Sc2ccc(OC)cc2N1CC)=C\c1sc2ccc(OC)cc2[n+]1CCCS(=O)(=O)[O-]	-49%
CCN(CC)CCCNc1nc2ccccc2c2nc(-c3ccncc3)nn12	20.1%
CCCOc1ccccc1OCC(=O)N1CCN(S(=O)(=O)c2ccc(Cl)cc2)CC1	70.6%
Cc1ccc(C(=O)OCC(=O)Nc2ccccc2)cc1S(=O)(=O)N1CCCCC1	77.1%
O=C(COC(=O)c1cc(Cl)nc(Cl)c1)NCCc1ccc(F)cc1	52.7%
COc1ccc(CN(C)C(=O)COC(=O)c2cc([N+](=O)[O-])ccc2N2CCCC2)c(OC)c1OC	56%
Cc1nnc(NCc2ccccc2)c2ccccc12	21.9%
O=C(COC(=O)Cc1cccs1)NCC(=O)Nc1ccc(F)cc1	73.4%
NC(=O)NN=Cc1cn(CC(=O)Nc2ccc(F)cc2)c2ccccc12	36.8%
Cc1ccc(OCCCC(=O)Nc2ccc(S(=O)(=O)N3CCOCC3)cc2)cc1	55.5%
Nc1cc(Cl)c2nonc2c1[N+](=O)[O-]	23.9%
Cc1cc(C)n2nc(N)c(N=Nc3ccccc3)c2n1	46.8%
CCCCn1c(=O)[nH]c(=O)c2c1nc(-c1ccc(-c3ccc(F)cc3)o1)n2C	8.76%
CC(C)(C)c1ccc(OCc2cnc(Cl)s2)cc1	25.6%
CN(CC(=O)Nc1ccc(OC(F)(F)F)cc1)C(=O)/C=C/c1cc2c(cc1[N+](=O)[O-])OCO2	62.6%
COc1ccc(C(=O)C(C)OC(=O)CNC(=O)c2ccco2)cc1 (centres undefined)	64.5%
COc1cc(-c2cc(C(=O)Nc3ccncc3)c3ccccc3n2)cc(OC)c1OC	52.7%
O=C(Nc1cccc(Cl)c1)NC1CC2CCC1C2 (centres undefined)	50%

SMILES	growth inhibition
O=Cc1c(N2CCSCC2)nc2ccccn2c1=O	16.4%
Cc1ccsc1/C=C1/SC(N2CCOCC2)=NC1=O	18.4%
CC(C)CN=c1cc(-c2ccccc2)oc2ccc(Cl)cc12	-15.4%
CCCCN(C(=O)CSc1nnc(-c2ccccc2)o1)c1c(N)n(CCC)c(=O)[nH]c1=O	67.3%
Cc1ccc(C(=O)COC(=O)c2cccc(NC(=O)c3ccc([N+](=O)[O-])cc3[N+](=O)[O-])c2)cc1	22.6%
COc1cc(/C=C2\SC(N)=NC2=O)ccc1OCC(=O)Nc1ccc(C)cc1	30.8%
CCc1ccc(OCC(=O)NNCC(=O)Nc2ccc(OC)cc2)cc1	35.4%
CN(C)CCSc1nc2cc(S(=O)(=O)N3CCCCC3)ccc2o1	74.8%
CCN(CC)C(=O)CSc1nnc2nnc3cc(OC)ccc3n12	38.3%
O=C(CSc1nnc(-c2ccco2)o1)NCCc1ccccc1	14.1%
Nc1ccc(S(=O)(=O)Nc2nc3ccccc3o2)cc1	46.7%
CS(=O)(=O)c1ccc(C(O)C(CO)NC(=O)C(Cl)Cl)cc1 (centres undefined)	44.2%
COc1ccc(-c2sc3ccccc3c2-c2ccc(OCCN(C)C)cc2)cc1	30.1%
COc1ccc(CCNC(=O)c2ccc(Cl)cc2)cc1	58.3%
CN(CC(=O)Nc1ccc(OC(F)(F)F)cc1)C(=O)c1ccc(N2CCCC2=O)cc1	53.7%
COc1ccc(CN(C)C(=O)c2cccc(S(=O)(=O)N3CCCc4ccccc43)c2)c(OC)c1OC	66.8%
CN1CCC/C1=C/C=C1\SC(=S)NC1=O	-2.6%
CN(C(=O)CSc1ncnc2sc3c(c12)CCC3)C1CCS(=O)(=O)C1 (centres undefined)	72%
CN1/C(=C\C=C2/SC(=S)N(CC(=O)O)C2=O)C(C)(C)c2ccccc21	-1.45%
Cc1ccc(C2(C)NC(=O)N(CC(=O)N3c4ccccc4NC(=O)CC3C)C2=O)cc1 (centres undefined)	53.2%
CC(C)(C)c1csc(NN=Cc2ccc(O)cc2)n1	59.2%
COc1ccc(NC(C)C(=O)NN=Cc2ccc([N+](=O)[O-])s2)cc1 (centres undefined)	11.3%
O=C1CN(C(=O)COC(=O)c2c(F)cccc2Cl)c2ccccc2N1	70.1%
Cc1cc(N=Nc2ccccc2C(=O)O)c(C)c(C)c1O	9.87%
CCOC(=O)c1c(NC(=O)CN2C(=O)N(C)C3(CCCCC3)C2=O)sc(C(=O)N(C)C)c1C	59.8%

SMILES	growth inhibition
C=CCOc1ccc(/C=C2\C(=N)N3N=C(S(=O)(=O)CC)SC3=NC2=O)cc1OC	29%
O=C(OCC#CCSc1nnc(-c2cccc3ccccc23)o1)c1cc2ccccc2o1	29.6%
CN(C)S(=O)(=O)c1ccc(C(=O)OCC(=O)NC(=O)NC2CCCC2)cc1	62.6%
Cc1cc(NN=Cc2ccccc2O)c2ccccc2n1	38.3%
Cc1ccc(Cn2ccc(=O)c(OCc3c(Cl)cccc3Cl)c2C)cc1	34.8%
O=[N+]([O-])c1nn(-c2cccc(Cl)c2)n(O)c1=NCc1cccnc1	21.3%
N#Cc1c2ccccc2nc2ccccc12	39.6%
Cc1ccccc1OCCC(=O)NNC(=O)c1ccccc1F	69.6%
Cc1cc(O)c(C(C)C)cc1N=Nc1ccccc1C(=O)O	6.86%
CCN(CC)c1ccc(/C=C2\C(=O)NC(=S)N(C)C2=O)o1	13%
CC(=O)c1cccc(NC(=O)NC2CCCCCCC2)c1	52.5%
O=C(COC(=O)C1COc2ccccc2O1)Nc1cccc(F)c1 (centres undefined)	61.2%
CN(C)CCCN1C(=O)c2cccc3c(Br)ccc(c23)C1=O	5.04%
Cc1nnc(SCC(=O)NNC(=O)COc2ccc(Br)cc2)n1C	65.4%
Cc1c(N2C(=O)/C(=C/c3ccc(N(C)C)cc3)N(C)C2=S)c(=O)n(-c2ccccc2)n1C	7.05%
CCC(=Nc1ccccc1O)C1=C(O)CC(c2ccccc2)CC1=O (centres undefined)	46%
CC1CCC2C(C)C(=O)OC3OC4(C)CCC1C32OO4 (centres undefined)	5.61%
O=C(COC(=O)C1CC2CCCC(C1)C2=O)Nc1ccc(F)c(Cl)c1 (centres undefined)	51.8%
COc1cc(/C=C2\SC(N)=NC2=O)ccc1OCC(=O)Nc1ccccc1C	30.6%
[O-][n+]1c2ccccc2c2n1CCN1CCOC21c1ccc(Cl)cc1 (centres undefined)	38.7%
Cc1nc(SCc2ccccc2F)c2oc3ccccc3c2n1	14.9%
O=C(OCC(=O)c1ccc(Cl)s1)c1cncc(Br)c1	59.3%
COc1ccc(CCNC(=O)c2cc3c(=O)n4ccccc4nc3n(Cc3ccco3)c2=N)cc1OC	16%
C=CCNc1nc(C(=O)OCC(=O)NCc2cccc(Cl)c2)cs1	76.7%
